Consider 42 compounds from ChEMBL document CHEMBL4888484, “Replenishing the malaria drug discovery pipeline: Screening and hit evaluation of the MMV Hit Generation Library 1 (HGL1) against asexual blood stage Plasmodium falciparum ,using a nano luciferase reporter read-out” (2022).

The campaign covered roughly 150,000 compounds. About 540 (0.36%) showed an effect of 50% or more. The list shows a part of the results.

This assay concerns Plasmodium falciparum. The assay can be described thus: Primary screen in NF54 nanoGlo assay, in single point, at 2uM, 72h; a lower Z score goes with more inhibition. It counts as functional, Erythrocyte. The note with it: timepoint 72 hour.
Usually % Inhibition stands for the relative decrease from the control value, in per cent. Turning to `O=C(CCCc1ccccc1)NC1CC(O)C(CO)C1` (centres undefined), the “% Inhibition” value is -8% and the Z score is on record as 1.28.
As to `NC(=O)c1cccnc1NCCc1cn2ccccc2n1`, the “% Inhibition” value was -5% and the Z score was 0.73.
On the same counts, the results for `Cn1ncc2c(=O)n(Cc3cccc4cccnc34)cnc21` are -4% and 0.48.
Regarding `Fc1cccc2c1CC[C@@H]2n1cc(C2CCOC2)nn1` (some centres undefined), the “% Inhibition” value is 2% and the Z score is listed as -0.22.
Consider `Cc1cc(C)n(CCN(C)C(=O)CCOc2ccccc2)n1`, for which the “% Inhibition” value was -23% and the Z score turned out to be 2.2.
On to `O=C(Cc1ccccc1F)Nc1ccnn1C1CCCC1`, for which the “% Inhibition” value amounted to 3% and the Z score was -0.42.
Regarding `CN1CCN(c2cccc(NC(=O)N3C[C@H]4CC[C@@H](C3)N(C)C4=O)c2)C1=O`, the “% Inhibition” value is reported as -7% and the Z score was 1.25.
Take `CC(C)NC(=O)c1nsc(C(=O)N2CCCC2)c1N`: the “% Inhibition” value was -16% and the Z score is given as 1.85.
In the case of `Cc1nc2ccc(N(C)C(=O)c3nc(C)c(C)[nH]c3=O)cc2s1`, the “% Inhibition” value is listed as -12% and the Z score was determined as 1.23.
With `Cc1nnsc1CN(C)C(=O)Cn1cnc2ccccc2c1=O`, the “% Inhibition” value is on record as -14% and the Z score turned out to be 1.39.
On to `CC[C@H](Nc1ncc(Cl)cn1)C1CCOCC1`, for which the “% Inhibition” value was -5% and the Z score came out at 0.48.
In the case of `COC(=O)CCC(=O)N1CCN(c2nc3nccc(-c4ccc(Cl)c(Cl)c4)n3n2)CC1`, the “% Inhibition” value was -25% and the Z score is reported as 2.25.
Taken in the same sequence, the figures for `CN(C(=O)c1cscn1)c1ncccc1Br` were -1% and 0.16.
With `Cc1nc(-c2cc(C(C)C)n3ncnc3n2)n(C2CCN(C)CC2)n1`, the “% Inhibition” value was -7% and the Z score worked out at 1.18.
As to `Cc1ccc(S(=O)(=O)NC[C@H]2OC[C@@H](NC3COC3)[C@@H]2O)cc1`, the “% Inhibition” value is -4% and the Z score was determined as 0.61.
As for `CCN(CC)C(=O)CCC(=O)Nc1cccc(-n2c(C)c[nH]c2=O)c1`, the “% Inhibition” value was -9% and the Z score was found to be 1.
As for `O=C(NC(c1ccccc1)c1ccccc1)[C@@H]1CCCc2c1[nH]c1ccc(Br)cc21`, the “% Inhibition” value is -3% and the Z score is recorded as 0.57.
As to `Cc1cc(C)c(S(=O)(=O)N2CC(OCc3ccccc3Cl)C2)c(C)c1`, the “% Inhibition” value is listed as -10% and the Z score is 1.76.
On the same counts, the results for `O=C(Cc1cccc(F)c1)N1CCC2(CC1)CN(c1ncccn1)C[C@@H]2CO` are -9% and 1.01.
As for `O=C(CCn1cccn1)NC[C@H]1CCCN1C(=O)CCn1cccn1`, the “% Inhibition” value is reported as -13% and the Z score was 1.88.
As to `COc1ccc(OC)c(NC(=O)N2CCC[C@@H]2CN2CCCCC2)c1`, the “% Inhibition” value is -11% and the Z score was found to be 2.03.
Turning to `CN(CC(=O)Nc1sc2c(c1C(N)=O)CCC2)Cc1cccs1`, the “% Inhibition” value was 20% and the Z score is -2.35.
In the case of `O=C(NC1(CN2CCN(c3ccc(F)cc3)CC2)CC1)c1cccnn1`, the “% Inhibition” value is recorded as -13% and the Z score is recorded as 1.42.
Turning to `O=C(NC[C@H](O)c1ccc(-c2ccco2)o1)c1ccc2c(c1)OCO2`, the “% Inhibition” value is given as 21% and the Z score is on record as -2.88.
Consider `CC(C)(C)Oc1ccc(C(=O)N2CC[S@+]([O-])C(C)(C)C2)cn1`, for which the “% Inhibition” value is on record as -2% and the Z score was determined as 0.27.
Taken in the same sequence, the figures for `Cc1ccccc1CC(=O)N1CCc2nncn2CC1` were -6% and 0.78.
`CC(C)NS(=O)(=O)Cc1ccccc1C#N`: the “% Inhibition” value is reported as 4% and the Z score was -0.6.
For the compound `COc1ccc([C@H]2Oc3ccc(C)cc3-n3c(-c4ccc(C)cc4)c4c(=O)n(C)c(=O)n(C)c4c32)cc1`, the “% Inhibition” value was -10% and the Z score worked out at 1.7.
With `CC(CNC(=O)NCC(O)C1CC1)c1ccc(F)c(F)c1` (centres undefined), the “% Inhibition” value is listed as 36% and the Z score is reported as -4.85.
`O=C(CCc1c(-c2ccc(Cl)cc2)nc2ccc(-c3ccccc3Cl)cn12)N1CCOCC1`: the “% Inhibition” value is given as 10% and the Z score is reported as -1.12.
`O=C(O)[C@@H]1CC[C@H](C(=O)N(CCc2ccccc2F)C2CCCC2)O1`: the “% Inhibition” value is reported as -2% and the Z score came to 0.36.
As to `CC1(C)CC(C)(C)c2ccccc2CN1`, the “% Inhibition” value is 3% and the Z score was -0.41.
On the same counts, the results for `CC(C)C1NC2(C(=O)Nc3ccccc32)C2C(=O)N(c3cccc4ccccc34)C(=O)C12` (centres undefined) are 4% and -0.51.
Regarding `COc1cc(OC)nc(NS(=O)(=O)c2c(C)nn(C)c2C)n1`, the “% Inhibition” value is recorded as -8% and the Z score is recorded as 1.27.
For the compound `CN1N=C(C(=O)NCCc2ccc3c(c2)OCCO3)CCC1=O`, the “% Inhibition” value is -1% and the Z score worked out at 0.19.
`CCc1ccc(-n2c(=O)c3c(n2CC(=O)Nc2ccc(C)c(F)c2)Oc2ccc(Cl)cc2C3)cc1`: the “% Inhibition” value is on record as -15% and the Z score is listed as 2.55.
Turning to `CC[C@H](Nc1ccc(N2CCNC(=O)C2)nc1)c1ccccc1`, the “% Inhibition” value is -5% and the Z score came out at 0.97.
On to `CC1CCc2c(cc(-c3ccccc3)n2-c2ccc(C(=O)NCC3CCCO3)cc2)C1` (centres undefined), for which the “% Inhibition” value is -12% and the Z score was 2.25.
As to `c1ccc(-n2nc(-c3nnc(-c4ccncc4)[nH]3)c(N3CCCC3)n2)cc1`, the “% Inhibition” value is reported as -49% and the Z score stood at 5.73.
`CCCC(C)(CC)C(=O)NCC1CCCC(O)C1` (centres undefined): the “% Inhibition” value worked out at 2% and the Z score was -0.27.
Turning to `CC[C@H](C)C(=O)N1CCCN(C2=NS(=O)(=O)C(c3ccccc3)=C2C)CC1`, the “% Inhibition” value is -2% and the Z score is reported as 0.45.
Take `CCn1cc(-c2cc(-c3sc(N)nc3C)nc(N)c2C#N)cn1`: the “% Inhibition” value turned out to be 5% and the Z score is -1.06.
